Source: publication PMC5700166
This is a selection; strong and weak results do not stand in their true shares. For some assays here: The list includes weakly bound sequences.

molecular target: T1, GST-Co-NF-kB (UniProt F1ARL5); assay: protein-binding microarray (PBM); details: PBM: ~300 nM protein, 6 mM HEPES pH 7.8, 80 mM KCl, 0.5 mM EDTA, 0.5 mM EGTA, 6% glycerol, 35 ng/ul poly-dIdC, 1% milk, 1 h, room temperature; high values mean tight binding; double strand, one strand shown
T1 sequence: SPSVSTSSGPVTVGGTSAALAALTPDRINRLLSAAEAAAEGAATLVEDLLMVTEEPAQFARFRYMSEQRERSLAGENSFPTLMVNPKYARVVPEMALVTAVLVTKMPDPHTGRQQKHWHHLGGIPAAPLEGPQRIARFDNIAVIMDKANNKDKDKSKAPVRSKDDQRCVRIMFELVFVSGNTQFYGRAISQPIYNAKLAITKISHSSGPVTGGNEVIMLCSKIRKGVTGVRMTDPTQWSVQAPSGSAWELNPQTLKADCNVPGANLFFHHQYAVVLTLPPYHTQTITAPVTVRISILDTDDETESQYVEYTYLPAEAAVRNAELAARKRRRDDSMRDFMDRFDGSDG

**Q.** “CCGATTAACATCAGAAATCCCGCTGATGTTAATCGGGTCTTGATTCGCTTGACGCTGCTG” was tested. Which binding signal did it give?
**A.** 1.57 z-score

**Q.** “CCGATTAACATCAGAGTATTCCCTGATGTTAATCGGGTCTTGATTCGCTTGACGCTGCTG” was tested. Which binding signal did it give?
**A.** 2.71 z-score

**Q.** How did the binding signal turn out when “CCGATTAACATCAGGGATTCCCATGATGTTAATCGGGTCTTGATTCGCTTGACGCTGCTG” was run?
**A.** 2.91 z-score

molecular target: T2, GST-Dm-Relish (UniProt Q94527); assay: protein-binding microarray (PBM); details: PBM: ~300 nM protein, 6 mM HEPES pH 7.8, 80 mM KCl, 0.5 mM EDTA, 0.5 mM EGTA, 6% glycerol, 35 ng/ul poly-dIdC, 1% milk, 1 h, room temperature; Ap Aiptasia and Nv Nematostella (sea anemones) / Co Capsaspora / Aq Amphimedon (sponge) / Dm Drosophila / Hu human; RHD is the Rel homology domain; high values mean tight binding; most listed sequences are background and not binding sites; double strand, one strand shown
T2 sequence: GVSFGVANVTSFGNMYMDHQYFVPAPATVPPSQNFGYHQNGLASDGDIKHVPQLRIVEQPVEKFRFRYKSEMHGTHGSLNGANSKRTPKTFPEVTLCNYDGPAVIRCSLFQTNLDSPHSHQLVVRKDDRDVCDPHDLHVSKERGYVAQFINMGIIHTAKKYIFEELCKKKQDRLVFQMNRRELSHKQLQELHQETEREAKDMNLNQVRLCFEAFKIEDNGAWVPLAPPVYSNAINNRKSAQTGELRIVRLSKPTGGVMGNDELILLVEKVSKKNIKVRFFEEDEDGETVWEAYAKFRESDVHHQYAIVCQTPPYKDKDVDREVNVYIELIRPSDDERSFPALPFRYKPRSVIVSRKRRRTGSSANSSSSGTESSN

**Q.** “CCGATTAACATCAAGGGTTTTCCTGATGTTAATCGGGTCTTGATTCGCTTGACGCTGCTG” was tested. Which binding signal did it give?
**A.** 4.7 z-score

**Q.** With “CCGATTAACATCAACAATTCCCCTGATGTTAATCGGGTCTTGATTCGCTTGACGCTGCTG” as the sequence, how does the binding signal read?
**A.** 5.11 z-score

**Q.** How did the binding signal turn out when “CCGATTAACATCACCAGTTTCCCTGATGTTAATCGGGTCTTGATTCGCTTGACGCTGCTG” was run?
**A.** 0.665 z-score

**Q.** How did the binding signal turn out when “CCGATTAACATCATGCCCGGGAATGATGTTAATCGGGTCTTGATTCGCTTGACGCTGCTG” was run?
**A.** 0.38 z-score

**Q.** “CCGATTAACATCAAAGATTTCCCTGATGTTAATCGGGTCTTGATTCGCTTGACGCTGCTG” was tested. Which binding signal did it give?
**A.** 2.9 z-score

**Q.** “CCGATTAACATCAAAATCTCCCCTGATGTTAATCGGGTCTTGATTCGCTTGACGCTGCTG” was tested. Which binding signal did it give?
**A.** 4.44 z-score

**Q.** For “CCGATTAACATCAGGGTAAGTACTGATGTTAATCGGGTCTTGATTCGCTTGACGCTGCTG”, which binding signal is on record?
**A.** 7.08 z-score

**Q.** With “CCGATTAACATCAGGGGGGAATATGATGTTAATCGGGTCTTGATTCGCTTGACGCTGCTG” as the sequence, how does the binding signal read?
**A.** 5.21 z-score

**Q.** For “CCGATTAACATCACCCCGCCCCCTGATGTTAATCGGGTCTTGATTCGCTTGACGCTGCTG”, which binding signal is on record?
**A.** 4.16 z-score

**Q.** For “CCGATTAACATCAAGGGGGTACCTGATGTTAATCGGGTCTTGATTCGCTTGACGCTGCTG”, which binding signal is on record?
**A.** 3.15 z-score

**Q.** How did the binding signal turn out when “CCGATTAACATCACGGGGCCCCCTGATGTTAATCGGGTCTTGATTCGCTTGACGCTGCTG” was run?
**A.** 3.89 z-score
